Source: ChEMBL document CHEMBL4888484, “Replenishing the malaria drug discovery pipeline: Screening and hit evaluation of the MMV Hit Generation Library 1 (HGL1) against asexual blood stage Plasmodium falciparum ,using a nano luciferase reporter read-out” (2022)
About 540 (0.36%) of roughly 150,000 compounds showed an effect of 50% or more. The list shows a part of the results.

What follows are compounds tested on Plasmodium falciparum (assay: Primary screen in NF54 nanoGlo assay, in single point, at 2uM, 72h; a lower Z score goes with more inhibition). Settings: timepoint 72 hour.
Assay type: functional, Erythrocyte

| SMILES | % Inhibition [%] | Z score |
| --- | --- | --- |
| Cc1[nH]n(-c2nc3c(c(=O)[nH]2)CCCC3)c(=O)c1CCO | -6 | 0.91 |
| CCN(CC)C(N)=NCc1cc(Cl)c2c(c1)OCCCO2 | -4 | 0.39 |
| OCCCN(Cc1ccccc1Cl)c1cc([C@H]2CCOC2)ncn1 | 5 | -0.95 |
| C[C@H](NC(=O)C1CCN(S(C)(=O)=O)CC1)c1ccccn1 | 4 | -0.76 |
| C[C@H]1C(=O)N(c2cccc3ccccc23)CCN1Cc1ccccc1 | -20 | 1.96 |
| CCn1nc(C(=O)N2CCN(C)CC2)c2c1CC[C@H](NC1Cc3ccccc3C1)C2 | 1 | -0.28 |
| C#Cc1ccc(CN2CCC[C@H](CCC(=O)N(C)C3CCN(C)CC3)C2)cc1 | -2 | 0.35 |
| Cc1n[nH]c(C)c1Cn1cnc(-c2ccccc2)c1-c1ccc(C#CCO)cc1 | -11 | 1.08 |
| COC(=O)c1ccnc(NC(=O)C[C@H]2CCCCN2C(C)=O)c1 | 8 | -1.03 |
| C[C@H]1CN(C(=O)NCc2cccc(COC3CCOCC3)c2)CCO1 | -4 | 0.83 |
| CCCOC1(c2noc([C@@H]3CCCN3CCC)n2)CCCCC1 | 2 | -0.36 |
| CCn1nc(C(=O)N2CCCCC2)c2c1CC[C@H](NCc1cccc(C)n1)C2 | 4 | -0.77 |
| CCCCN(C)C[C@@H]1OC[C@H](NC(=O)c2cccc(F)c2)[C@H]1O | 29 | -3.41 |
| Cc1noc(C(C)(C)NC(=O)Nc2ccnn2[C@@H](C)CC(C)C)n1 | -17 | 2.35 |
| CCN(C(C)=O)c1nc(CN[C@H]2CCc3ncnn3C2)cs1 | -8 | 0.94 |
| Cc1cc(S(=O)(=O)Nc2nnc(CC3CCCC3)o2)c(C)o1 | 0 | 0.02 |
| Cc1nc(-n2nc(C3CC3)cc2N)[nH]c(=O)c1C | 17 | -1.97 |
| CC(C)(C)C(=O)N1C[C@H](c2nc(-c3ccc(F)cc3)no2)C2(CCOCC2)C1 | 4 | -0.8 |
| CCN(C(=O)Cn1cc(NC(C)=O)cn1)c1ccccc1 | -9 | 1.27 |
| Cc1noc(C)c1C(=O)NCc1ccnn1C | -11 | 1.36 |
| Cc1ccc(Br)cc1C(=O)N1CCCS(=O)(=O)CC1 | -1 | 0.14 |

| SMILES | % Inhibition [%] | Z score |
| --- | --- | --- |
| CC1(C#N)CN(C(=O)CC(F)(F)F)C1 | -1 | 0.13 |
| COc1ccc(NC(=O)N2CCC(CN(C/C(C)=C/c3ccccc3)C(=O)C[C@@H](C)CC(C)(C)C)CC2)cc1 | -10 | 0.93 |
| CC12COC3(C#N)C(Br)(Br)C1CCC23C (stereo unspecified) | -1 | 0.15 |
| O=C(c1cnccn1)N1CCCCCCn2c(nnc2-c2ccc(F)cc2)CC1 | -12 | 1.52 |
| C[C@]1(NC(=O)c2nn(Cc3ccccc3)c(=O)c3ccccc23)CCS(=O)(=O)C1 | -2 | 0.25 |
| COc1ccc2cc(C(=O)NCC3CCN(c4nccnc4C#N)CC3)[nH]c2c1 | -12 | 1.7 |
| Cc1ccccc1N1CCN(C(=O)C[C@@H]2NC(=O)NC2=O)CC1 | -1 | 0.07 |
| Cc1noc([C@H](C)N(C)C(=O)c2[nH]cnc2-c2ccccc2)n1 | -14 | 2.34 |
| CCN1CCN(C(=O)CCC2CCN(C(=O)Cc3ccc(OC)c(OC)c3)CC2)CC1 | 4 | -0.57 |
| CN(Cc1ccccc1)C(=O)c1cc2cc(N(C)S(C)(=O)=O)ccc2s1 | -16 | 2.05 |
| c1ccc2c(c1)CCCCN2CCn1cncn1 | -9 | 1.26 |
| CC(C)COC1CCN(C(=O)[C@H]2CCN(C)C(=O)C2)CC1 | -9 | 1.46 |
| Cc1cc(OC(=O)c2nc3nccc(C)n3n2)cc(C)c1Cl | -43 | 5.06 |
| COC(=O)[C@@H]1CC[C@@H]1S(=O)(=O)Oc1cccc2cccnc12 | 3 | -0.36 |
| O=C(O)c1cccc(NC(=O)c2ccc3c(c2)C(=O)N(c2nccs2)C3=O)c1 | -14 | 1.91 |
| CCN(c1ccc2[nH]ccc2c1)S(=O)(=O)Cc1ccc(F)cc1 | 35 | -3.92 |
| COc1ccc(CNc2ncccc2C(=O)N2CCOCC2)cc1 | -12 | 1.2 |
| Cc1c(Br)c(C)n(NC(=O)c2cnn(Cc3ccccc3)c2)c(=O)c1C#N | 31 | -4.43 |
| CC(C)NC(=O)N(CC(=O)N1CCc2sccc2[C@@H]1COc1ccc(F)cc1)CC1CC1 | -9 | 1.82 |
| Cc1ccccc1NC(=O)[C@H]1c2cccc[n+]2CC(=O)N1c1ccc2c(c1)OCO2 | -9 | 1.37 |
| CN(Cc1ncc(Cl)n1C)C1Cc2ccccc2C1 | 8 | -1.04 |

| SMILES | % Inhibition [%] | Z score |
| --- | --- | --- |
| C[C@@H](CO)NC(=O)[C@H]1CC[C@H](Cn2cnc3ccccc3c2=O)CC1 | -12 | 1.46 |
| Cc1cc(C(=O)NC[C@H]2Cc3ccccc3CO2)no1 | 14 | -1.57 |
| CC(Oc1cccnc1)C(=O)N1CC(C)[S+]([O-])C(C)C1 (stereo unspecified) | -1 | 0.2 |
| CC(C)c1noc([C@H]2CCCN(C(=O)c3cccc4c3CCC4=O)C2)n1 | -3 | 0.57 |
| OCC1CCCN(C2CCCc3ccc(F)cc32)C1 (stereo unspecified) | -6 | 1.12 |
| C[C@H](NC(=O)c1ccc(Br)o1)c1ccc2c(c1)OCCO2 | -8 | 1.36 |
| CO[C@H]1COC[C@H]1NC(=O)NCc1c(C)nc2ccccn12 | 3 | -0.5 |
| Cc1ccc(N(CC(=O)N[C@@H](C)CCc2ccccc2)S(=O)(=O)N(C)C)cc1 | -17 | 1.53 |
| O=C1c2cc(Nc3ccccc3)c3c4c(cc(Nc5ccccc5)c(c24)C(=O)N1c1ccccc1)C(=O)N(c1ccccc1)C3=O | 3 | -0.42 |
| O=C1CCCN1CC1CCCCN1C(=O)C1CC2C=CC1C2 (stereo unspecified) | -5 | 0.43 |
| N#Cc1ccc(C(=O)NCCc2noc(C3CCCC3)n2)cn1 | -7 | 1.08 |
| O=C(Nc1cnccn1)C1CC1c1ccc(F)c(F)c1 (stereo unspecified) | -3 | 0.26 |
| C[C@H]1C[C@@H](C(F)F)n2ncc(C(=O)NCC(=O)OC(C)(C)C)c2N1 | -10 | 1.74 |
| Cc1cc(C)nc(Cn2cc(C(N)=O)nn2)c1 | 5 | -0.6 |
| Cc1ccc(-c2nc3n(CC(=O)Nc4ccc(N(C)C)cc4)c4c(c(=O)n3n2)CCC4)cc1 | 0 | -0.04 |
| CC(C)c1cc(C(=O)N[C@H]2CCc3nccn3C2)on1 | 1 | -0.18 |
| CCC(C)[C@H](NC(=O)COc1ccc(C(=O)COc2ccccc2)c(O)c1)C(=O)O (stereo partly specified) | -14 | 1.86 |
| CCn1cc(S(=O)(=O)Nc2cccc3[nH]ncc23)cn1 | -16 | 1.43 |
| O=C1CC2CCC(CN1)N2CC(O)CC1CCCC1 (stereo unspecified) | -3 | 0.26 |
| Cc1ccsc1C(=O)NCc1ccc(-c2nc(C3CC3)no2)s1 | -4 | 0.77 |
| Cc1nnnn1-c1ccc(Oc2ccccc2Cl)c(Cl)c1 | -7 | 0.67 |

| SMILES | % Inhibition [%] | Z score |
| --- | --- | --- |
| CC(CCc1cccc(F)c1)N1CCS(=O)(=O)C(C)C1 (stereo unspecified) | -2 | 0.28 |
| O=C(O)c1cccc(-n2nc([C@H]3CCOC3)nc2Cc2c(F)ccc(F)c2F)c1 | -2 | 0.42 |
| CC(C)(C)c1nsc(N[C@H]2CCC[C@H]2C(=O)O)n1 | -6 | 0.9 |
| COC(=O)N1CC[C@H](NC(=O)c2cc(-c3cccc(Cl)c3)[nH]n2)C1 | 8 | -1.24 |
| CN(C(=O)Cn1c(=O)n(C)c(=O)c2ccccc21)c1cccc(Cl)c1 | 1 | -0.23 |
| Cc1n[nH]cc1CNC(=O)N1Cc2ccccc2C[C@@H]1C | 2 | -0.19 |
| CC(C)(C)c1noc(-c2ccnc(-n3cnc(C(=O)NCc4ccc(F)cc4)c3)c2)n1 | 33 | -3.74 |
| CCOC(=O)N1CCN(C(=O)c2ccc3c(ccn3C)c2)CC1 | -3 | 0.44 |
| CN(C)C(=O)c1ccc(S(=O)(=O)N(Cc2ccco2)C2CC2)o1 | 6 | -0.74 |
| O=C1COc2ccc(S(=O)(=O)NC3CCCCCC3)cc2N1Cc1noc(C2CC2)n1 | -8 | 1.03 |
| Cc1nc(-c2cccc(C(=O)Nc3ccc(N4CCC(CN(C)C)CC4)cc3)c2)n[nH]1 | -7 | 1.27 |
| COC(CNC(=O)N1CCCC2CC1C2(C)C)(OC)c1ccccn1 (stereo unspecified) | -12 | 2.01 |
| Nc1c(C(=O)N2CCCC2)nsc1C(=O)N1CCN(c2ccc(F)cc2)CC1 | -20 | 2.3 |
| CC(C)[C@H](CCO)NC(=O)C1CCC(N2CCOCC2)CC1 (stereo partly specified) | -10 | 1.84 |
| COCCN(CCC(=O)OC)C(=O)c1ccc(F)c(C)c1 | 1 | -0.1 |
| Cc1occc1C(=O)Nc1cccnc1-n1cccn1 | -5 | 0.71 |
| Cc1ccccc1OCC(=O)N1C[C@@H](CN2CCCCC2)[C@@H](CO)C1 | -9 | 1.75 |
| Cc1ccc(NCCCNc2nc(C)nc(C)c2C)nc1 | -9 | 1.47 |
| COc1ccc(O)c(-c2ccc(-c3ccn[nH]3)s2)c1 | -17 | 1.86 |
| CCC(CNC(=O)C1CC2CCC1O2)Oc1cccc(F)c1 (stereo unspecified) | -13 | 1.32 |
